Our source for the activation values is PubChem BioAssay AID1346428 (National Center for Advancing Translational Sciences (NCATS), 2018).

Structures are written as SMILES. The whole screen tested about 48,000 compounds, of which about 1,200 (2.5%) were called active. Roughly 2% stayed inconclusive and do not appear here.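 The calls were made as follows: active = activation of at least 60% and not above a set upper limit (about 1 call in 100 departs from these limits); inconclusive = activation of 40% to 60%, or above that upper limit; inactive = activation under 40%.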 The list shows a part of the results.

The target of this assay is Probable G-protein coupled receptor 32 (Homo sapiens) (UniProt O75388). Put plainly: qHTS for Agonists of Human Resolvin D1 Receptor DRV1. Also: 0% is about no effect. The conditions noted are these: CHO-K1 GPR32 beta-arrestin PathHunter luminescence, 90 min; at 76.9 µM; stronger effect = higher value; zero percent set by DMSO-only wells. In outline: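 Readings come from a cell-based beta-arrestin complementation format: CHO-K1 GPR32 stable cells (2,500/well) treated 90 min with compounds, then beta-Gal substrate added for 1 h before chemiluminescence imaging.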
Chain of UniProt O75388 (O75388 whole entry, looked up): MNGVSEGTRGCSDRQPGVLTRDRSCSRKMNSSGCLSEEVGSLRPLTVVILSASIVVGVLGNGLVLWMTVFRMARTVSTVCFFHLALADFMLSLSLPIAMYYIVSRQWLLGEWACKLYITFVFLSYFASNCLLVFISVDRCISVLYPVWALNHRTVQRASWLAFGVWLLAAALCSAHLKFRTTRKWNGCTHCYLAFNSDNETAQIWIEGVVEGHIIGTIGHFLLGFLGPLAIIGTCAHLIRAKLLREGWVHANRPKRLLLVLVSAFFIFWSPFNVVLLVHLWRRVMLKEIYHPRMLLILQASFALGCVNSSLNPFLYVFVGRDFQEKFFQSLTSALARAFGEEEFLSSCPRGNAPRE
Background: qHTS replaces the single test concentration by a dilution series.
As for `COc1ccc(Cl)cc1NC(=O)C1CCN(S(=O)(=O)c2ccc3c(c2)CCCN3C(=O)C2CCC2)CC1`, the activation was inactive: -7.2%.

Take `Cc1cc(=O)[nH]c2nnc(SCC(=O)Nc3ccc(F)cc3F)n12`: the activation was inactive: 13.9%.

Regarding `COc1ccccc1NC(=O)Cn1cc(C(=O)c2ccncc2)c(=O)c2cc(C)ccc21`, the activation was inactive: -10.6%.

For `COc1ccc2c(c1)CCC1C2CC[C@@]2(C)C1CC[C@@H]2NCCCCCCN1C(=O)CCC1=O` (some centres undefined), the activation is inactive: -2.22%.

Turning to `CC(=O)N1CCN(c2nc3c(C)ccc(Cl)c3s2)CC1`, the activation was inactive: 48.6%.

Consider `CC(=O)c1cccc(NC(=O)Cn2c(=O)oc3cc(S(=O)(=O)NC4CCCC4)ccc32)c1`, for which the activation was inactive: 30.4%.

With `CC(=O)c1ccc(Nc2nc3ccccc3nc2-n2nc(C)cc2C)cc1`, the activation was inactive: -13.7%.

Consider `Cc1ccc(C)c(Cn2c3ccccc3c3cnn(CC(=O)NCC(C)c4ccccc4)c(=O)c32)c1` (centres undefined), for which the activation was inactive: -12.9%.

For `COc1cccc(NC(=O)CSc2nccn2Cc2ccc3c(c2)OCO3)c1`, the activation was active: 74.7%.

Take `Cc1nc(-n2nc(C)c(Cc3ccc(Cl)cc3)c2C)sc1C(=O)N1CCCCC1C` (centres undefined): the activation was inactive: -4.48%.

`O=C(CSCc1ccccc1Cl)NCc1ccc(Cl)c(Cl)c1`: the activation was inactive: -17.9%.

As for `CCOc1ccccc1Nc1nc(-c2ccc(C)cc2)c(CC(=O)O)s1`, the activation was inactive: -32.4%.

Take `O=c1[nH]c2ccc(NCc3ccc(-c4ccc(Cl)cc4)o3)cc2[nH]1`: the activation is inactive: -7.4%.

For the molecule `COc1ccc(OC)c(NC(=O)C(C)n2nc(C)c3c(C)n(-c4ccccc4)nc3c2=O)c1` (centres undefined), the activation was inactive: -11.1%.

For `COc1ccc(C2c3c(oc4ccc(Cl)cc4c3=O)C(=O)N2CCCN(C)C)cc1OC` (centres undefined), the activation was inactive: -21.5%.

Regarding `COc1cccc(CNC(=O)CN2C(=O)N(c3c(C)cccc3C)S(=O)(=O)c3ccccc32)c1OC`, the activation was inactive: -8.02%.

On to `COc1ccc(CN(C(=O)Nc2cccc(OC)c2)C2CCN(C(C)=O)CC2)cc1`, for which the activation is inactive: -19.5%.

Consider `Cc1ccc(NC(=O)CN2C(=O)CC(c3ccc(F)cc3)=Nc3ccccc32)cc1F`, for which the activation was inactive: -9.67%.

Consider `CC[N+](C)(CC)CCOC(=O)C(O)(c1ccccc1)C1CCCCC1` (centres undefined), for which the activation was inactive: -14.6%.

For the molecule `COc1ccc(/C=C\c2onc(C)c2S(=O)(=O)N2CCC(C(=O)Nc3cccc(C)c3C)CC2)cc1`, the activation was inactive: -20%.

Regarding `CCOc1ccc(NC(=O)Cn2nnc(C(=O)NCc3cccs3)c2N)cc1`, the activation is inactive: -0.633%.

For the molecule `Cc1cccc(C)c1NC(=O)CCS(=O)(=O)c1ccc2c(c1)CC(C)N2C(=O)C1CC1` (centres undefined), the activation was inactive: -5.16%.

`COc1cccc(C(=O)Nc2nc3nc(C)c(C)c(=O)n3[nH]2)c1`: the activation was inactive: 23.2%.

On to `CCn1cc(C(=O)N2CCN(c3ccccc3)CC2)c(=O)c2cc(S(=O)(=O)N3CCCC3)ccc21`, for which the activation was inactive: -6.33%.

`CCNC(=O)c1c(NC(=O)Cc2coc3cc(C)ccc23)sc2c1CCCC2`: the activation was inactive: -23.7%.

As to `CCn1c(C(=O)NCc2ccc(OC)cc2)cc2sc(Cl)cc21`, the activation is inactive: -18.8%.

On to `Cc1ccc(Nc2ncnc3onc(C)c23)cc1Cl`, for which the activation is inactive: 2.3%.

For the molecule `O=C(Nc1c(O)c2ccccc2oc1=O)c1cccc(F)c1`, the activation was inactive: -6.71%.

Turning to `CCc1ccccc1NC(=O)Cc1cn(C)c2ccccc12`, the activation was inactive: 18.6%.

For `CCOc1ccc(S(=O)(=O)Nc2cccc(C)c2)c2cccnc12`, the activation is inactive: 15.6%.

For the molecule `COc1cc(Cl)c(C)cc1NC(=O)c1ccc(CN2C(=O)CCn3nc(C)cc32)cc1`, the activation is inactive: -21.8%.

`Cc1cc(C)cc(NC(=O)c2ccc3c(O)c(S(=O)(=O)c4ccccc4)c(=O)[nH]c3c2)c1`: the activation was inactive: -2.18%.

In the case of `Cc1ccc(OCC(=O)N(Cc2ccco2)c2ccccn2)cc1`, the activation is inactive: -14.5%.

`CCNC(=O)C1CCCN(c2nnc(C)c3c(C)n(-c4ccc(C)cc4)nc23)C1` (centres undefined): the activation is inactive: 5.45%.

Take `CCOC(=O)c1[nH]c(C)c(CCC(=O)NCc2cccc(C)c2)c1C`: the activation is inactive: -12.9%.

For the molecule `CCOC(=O)c1c(C)[nH]c(C)c1S(=O)(=O)N1CCCC(C(=O)Nc2ccc(C)c(N(C)C)c2)C1` (centres undefined), the activation is inactive: -11.2%.

On to `COC(=O)c1ccccc1NC(=O)C1(c2cccs2)CCOCC1`, for which the activation was inactive: -0.0755%.

As for `CCC1(c2cnc[nH]2)Cc2ccccc2C1`, the activation is inactive: -3.67%.

For the molecule `CCCCOC(=O)c1ccc(NC(=O)Cc2coc3c(C)c(C)ccc23)cc1`, the activation was inactive: -29.4%.

For the molecule `Cc1cccc(CNC(=O)CN2C(=O)C3CCCCN3c3ccc(C(=O)N4CCCC4)cc32)c1` (centres undefined), the activation is inactive: -25.2%.

For the molecule `CCC(=O)N1CCc2cc(CNC(=O)Nc3cc(C)ccc3C)ccc21`, the activation was inactive: -11.4%.

On to `Oc1c(C(c2ccccc2Cl)N2CCOCC2)sc2nc(-c3ccco3)nn12` (centres undefined), for which the activation was inactive: -11.9%.

In the case of `Cc1ccc(C(=O)N2CCN(c3ccc(F)cc3)CC2)cc1NC(=O)c1nsc2ccccc12`, the activation is inactive: -17.6%.

With `COc1ccc(CCNS(=O)(=O)c2ccc(F)c(C(=O)Nc3ccc(Cl)cc3)c2)cc1OC`, the activation is active: 63.6%.

`Cc1ccc(-c2nnc(Nc3ccc(Cl)c(Cl)c3)c3ccccc23)cc1S(=O)(=O)N(C)C`: the activation was inactive: 2.21%.

Turning to `CCOC(=O)c1cccc(Nc2nc(C(=O)OCC)nc3ccccc23)c1`, the activation is inactive: -9.47%.

In the case of `CCCCCn1c(=O)[nH]c2cc(C(=O)N3CCN(c4ccccc4F)CC3)ccc2c1=O`, the activation was inactive: -8.99%.

Take `Cc1ccc(-n2ncc3c(NCCCn4ccnc4)ncnc32)cc1`: the activation was inactive: 34.7%.

As for `CCOC(=O)c1[nH]c2ccccc2c1NC(=O)c1ccc(OCC)cc1`, the activation was inactive: 26%.

Regarding `CCN1CCN(CCCNC(=O)c2cnn(-c3ccc(C)cc3)c2C2CCN(C(=O)OC(C)(C)C)CC2)CC1`, the activation was inactive: -8.03%.

As for `Cc1ccc(NC(=O)c2cc(-c3cccs3)on2)cc1C`, the activation was inactive: 24.4%.

Regarding `COc1ccc(S(=O)(=O)NCCS(=O)(=O)N2CCN(c3ccccc3F)CC2)cc1`, the activation is inactive: -4.53%.

Regarding `c1csc(-c2nc3ccccn3c2Nc2ccc3c(c2)OCCO3)c1`, the activation was inactive: -2.79%.

With `COc1cccc(-n2c(SCC(=O)Nc3ccc(F)cc3F)nc3c([nH]c4ccccc43)c2=O)c1`, the activation is inactive: -45.6%.
